# Some of the results follow.
# Experiments:
# Assay in all cases: glycan array binding signal (z-score within array); higher = stronger binding
# Conditions in all cases: glycan notation: IUPAC condensed, linker removed
# Fuc(a1-2)Gal = target: Fuc(a1-2)Gal
# Method in brief: (§1)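 The binding signal is a Z-score computed within each array and averaged over linkers. Arrays of the same protein sequence at different concentrations or buffers were also averaged together. Data originate from 3228 arrays in the Consortium for Functional Glycomics database, kept only where the protein sequence was available.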
# Fuc(a1-2)Gal(b1-3)GalNAc = target: Fuc(a1-2)Gal(b1-3)GalNAc
# Method in brief: as §1
# [1] = target: Fuc(a1-2)Gal(b1-3)GalNAc(b1-3)Gal
# Method in brief: as §1
# [2] = target: Fuc(a1-2)Gal(b1-3)GalNAc(b1-3)Gal(a1-4)Gal(b1-4)Glc
# Method in brief: as §1
# [3] = target: Fuc(a1-2)Gal(b1-3)GalNAc(b1-4)[Neu5Ac(a2-3)]Gal(b1-4)Glc
# Method in brief: as §1
# Fuc(a1-2)Gal(b1-3)GlcNAc = target: Fuc(a1-2)Gal(b1-3)GlcNAc
# Method in brief: as §1
# [4] = target: Fuc(a1-2)Gal(b1-3)GlcNAc(b1-2)Man(a1-3)[Fuc(a1-2)Gal(b1-3)GlcNAc(b1-2)Man(a1-6)]Man(b1-4)GlcNAc(b1-4)GlcNAc
# Method in brief: as §1
# [5] = target: Fuc(a1-2)Gal(b1-3)GlcNAc(b1-3)Gal(b1-4)Glc
# Method in brief: as §1
# [6] = target: Fuc(a1-2)Gal(b1-3)GlcNAc(b1-3)[Gal(b1-4)[Fuc(a1-3)]GlcNAc(b1-6)]Gal(b1-4)Glc
# Method in brief: as §1
# [7] = target: Fuc(a1-2)Gal(b1-3)[Fuc(a1-4)]GlcNAc
# Method in brief: as §1
# [8] = target: Fuc(a1-2)Gal(b1-3)[Fuc(a1-4)]GlcNAc(b1-2)Man(a1-3)[Fuc(a1-2)Gal(b1-3)[Fuc(a1-4)]GlcNAc(b1-2)Man(a1-6)]Man(b1-4)GlcNAc(b1-4)GlcNAc
# Method in brief: as §1
# Fuc(a1-2)Gal(b1-4)Glc = target: Fuc(a1-2)Gal(b1-4)Glc
# Method in brief: as §1
# Fuc(a1-2)Gal(b1-4)Glc6S = target: Fuc(a1-2)Gal(b1-4)Glc6S
# Method in brief: as §1
# Fuc(a1-2)Gal(b1-4)GlcNAc = target: Fuc(a1-2)Gal(b1-4)GlcNAc
# Method in brief: as §1
# [9] = target: Fuc(a1-2)Gal(b1-4)GlcNAc(b1-2)Man(a1-3)[Fuc(a1-2)Gal(b1-4)GlcNAc(b1-2)Man(a1-6)]Man(b1-4)GlcNAc(b1-4)GlcNAc
# Method in brief: as §1
# [10] = target: Fuc(a1-2)Gal(b1-4)GlcNAc(b1-3)Gal(b1-4)GlcNAc
# Method in brief: as §1
# [11] = target: Fuc(a1-2)Gal(b1-4)GlcNAc(b1-3)Gal(b1-4)GlcNAc(b1-3)Gal(b1-4)GlcNAc
# Method in brief: as §1
# [12] = target: Fuc(a1-2)Gal(b1-4)GlcNAc6S
# Method in brief: as §1
# [13] = target: Fuc(a1-2)Gal(b1-4)[Fuc(a1-3)]GlcNAc
# Method in brief: as §1
# [14] = target: Fuc(a1-2)Gal(b1-4)[Fuc(a1-3)]GlcNAc(b1-2)Man(a1-3)[Fuc(a1-2)Gal(b1-4)[Fuc(a1-3)]GlcNAc(b1-2)Man(a1-6)]Man(b1-4)GlcNAc(b1-4)GlcNAc
# Method in brief: as §1
# [15] = target: Fuc(a1-2)Gal(b1-4)[Fuc(a1-3)]GlcNAc(b1-3)Gal(b1-4)[Fuc(a1-3)]GlcNAc
# Method in brief: as §1
# [16] = target: Fuc(a1-2)Gal(b1-4)[Fuc(a1-3)]GlcNAc(b1-3)Gal(b1-4)[Fuc(a1-3)]GlcNAc(b1-3)Gal(b1-4)[Fuc(a1-3)]GlcNAc
# Method in brief: as §1
# Fuc(a1-2)Gal6S(b1-4)Glc = target: Fuc(a1-2)Gal6S(b1-4)Glc
# Method in brief: as §1
# [17] = target: Fuc(a1-2)Gal6S(b1-4)Glc6S
# Method in brief: as §1
# [18] = target: Fuc(a1-2)Gal6S(b1-4)GlcNAc
# Method in brief: as §1
# Fuc(a1-2)[Gal(a1-3)]Gal = target: Fuc(a1-2)[Gal(a1-3)]Gal
# Method in brief: as §1
# [19] = target: Fuc(a1-2)[Gal(a1-3)]Gal(b1-3)GlcNAc
# Method in brief: as §1
# [20] = target: Fuc(a1-2)[Gal(a1-3)]Gal(b1-3)GlcNAc(b1-2)Man(a1-3)[Fuc(a1-2)[Gal(a1-3)]Gal(b1-3)GlcNAc(b1-2)Man(a1-6)]Man(b1-4)GlcNAc(b1-4)GlcNAc
# Method in brief: as §1
# [21] = target: Fuc(a1-2)[Gal(a1-3)]Gal(b1-4)Glc
# Method in brief: as §1
# [22] = target: Fuc(a1-2)[Gal(a1-3)]Gal(b1-4)GlcNAc
# Method in brief: as §1
# [23] = target: Fuc(a1-2)[Gal(a1-3)]Gal(b1-4)GlcNAc(b1-2)Man(a1-3)[Fuc(a1-2)[Gal(a1-3)]Gal(b1-4)GlcNAc(b1-2)Man(a1-6)]Man(b1-4)GlcNAc(b1-4)GlcNAc
# Method in brief: as §1
# [24] = target: Fuc(a1-2)[Gal(a1-3)]Gal(b1-4)[Fuc(a1-3)]GlcNAc
# Method in brief: as §1
# [25] = target: Fuc(a1-2)[Gal(a1-4)]Gal(b1-4)GlcNAc
# Method in brief: as §1
# [26] = target: Fuc(a1-2)[GalNAc(a1-3)]Gal
# Method in brief: as §1
# [27] = target: Fuc(a1-2)[GalNAc(a1-3)]Gal(b1-3)GlcNAc
# Method in brief: as §1
# [28] = target: Fuc(a1-2)[GalNAc(a1-3)]Gal(b1-3)GlcNAc(b1-2)Man(a1-3)[Fuc(a1-2)[GalNAc(a1-3)]Gal(b1-3)GlcNAc(b1-2)Man(a1-6)]Man(b1-4)GlcNAc(b1-4)GlcNAc
# Method in brief: as §1
# [29] = target: Fuc(a1-2)[GalNAc(a1-3)]Gal(b1-4)Glc
# Method in brief: as §1
# [30] = target: Fuc(a1-2)[GalNAc(a1-3)]Gal(b1-4)GlcNAc
# Method in brief: as §1
# [31] = target: Fuc(a1-2)[GalNAc(a1-3)]Gal(b1-4)GlcNAc(b1-2)Man(a1-3)[GalNAc(a1-3)[Fuc(a1-2)]Gal(b1-4)GlcNAc(b1-2)Man(a1-6)]Man(b1-4)GlcNAc(b1-4)GlcNAc
# Method in brief: as §1
# [32] = target: Fuc(a1-2)[GalNAc(a1-3)]Gal(b1-4)GlcNAc(b1-3)Gal(b1-4)GlcNAc
# Method in brief: as §1
# [33] = target: Fuc(a1-2)[GalNAc(a1-3)]Gal(b1-4)GlcNAc(b1-3)Gal(b1-4)GlcNAc(b1-3)Gal(b1-4)GlcNAc
# Method in brief: as §1
# [34] = target: Fuc(a1-2)[GalNAc(a1-3)]Gal(b1-4)[Fuc(a1-3)]GlcNAc
# Method in brief: as §1
# [35] = target: Fuc(a1-2)[GalNAc(a1-4)]Gal(b1-4)GlcNAc
# Method in brief: as §1
# [36] = target: Fuc(a1-2)[GalNAc(b1-3)]Gal
# Method in brief: as §1
# Fuc(a1-3)GlcNAc = target: Fuc(a1-3)GlcNAc
# Method in brief: as §1
# [37] = target: Fuc(a1-3)[Gal(b1-4)]Glc6S
# Method in brief: as §1
# [38] = target: Fuc(a1-3)[Gal(b1-4)]GlcNAc
# Method in brief: as §1
# [39] = target: Fuc(a1-3)[Gal(b1-4)]GlcNAc(b1-2)Man(a1-3)[Fuc(a1-3)[Gal(b1-4)]GlcNAc(b1-2)Man(a1-6)]Man(b1-4)GlcNAc(b1-4)GlcNAc
# Method in brief: as §1
# [40] = target: Fuc(a1-3)[Gal(b1-4)]GlcNAc(b1-2)Man(a1-6)[Gal(b1-4)GlcNAc(b1-2)Man(a1-3)]Man(b1-4)GlcNAc(b1-4)GlcNAc
# Method in brief: as §1
# [41] = target: Fuc(a1-3)[Gal(b1-4)]GlcNAc(b1-3)Gal(b1-3)[Fuc(a1-4)]GlcNAc
# Method in brief: as §1
# [42] = target: Fuc(a1-3)[Gal(b1-4)]GlcNAc(b1-4)Gal(b1-4)[Fuc(a1-3)]GlcNAc
# Method in brief: as §1
# [43] = target: Fuc(a1-3)[Gal(b1-4)]GlcNAc(b1-4)Gal(b1-4)[Fuc(a1-3)]GlcNAc(b1-4)Gal(b1-4)[Fuc(a1-3)]GlcNAc
# Method in brief: as §1
# [44] = target: Fuc(a1-3)[Gal(b1-4)]GlcNAc6S
# Method in brief: as §1
# [45] = target: Fuc(a1-3)[Gal3S(b1-4)]Glc6S
# Method in brief: as §1
# [46] = target: Fuc(a1-3)[Gal3S(b1-4)]GlcNAc
# Method in brief: as §1
# [47] = target: Fuc(a1-3)[Gal3S(b1-4)]GlcNAc6S
# Method in brief: as §1
# [48] = target: Fuc(a1-3)[GalNAc(b1-4)]GlcNAc
# Method in brief: as §1
# [49] = target: Fuc(a1-3)[Neu5Ac(a2-3)]Gal(b1-4)GlcNAc(b1-3)GalNAc
# Method in brief: as §1
# Fuc(a1-4)GlcNAc = target: Fuc(a1-4)GlcNAc
# Method in brief: as §1
# Fuc(b1-3)GlcNAc = target: Fuc(b1-3)GlcNAc
# Method in brief: as §1
binder,measurement,setting,value
"GALT1 615 (Arabidopsis thaliana), Q8L7F9 (protein) DPMRGSHHHHHHGMASMTGGQQMGRDLYDDDDKSRLQKPYITAAASVVVTPNTTLPMEWLRITLPDFMKEARNTQEAISGDDIAVVSGLFVEQNVSKEEREPLLTWNRLESLVDNAQSLVNGVDAIKEAGIVWESLVSAVEAKKLVDVNENQTRKGKEELCPQFLSKMNATEADGSSLKLQIPCGLTQGSSITVIGIPDGLVGSFRIDLTGQPLPGEPDPPIIVHYNVRLLGDKSTEDPVIVQNSWTASQDWGAEERCPKFDPDMNKKVDDLDECNKMVGGEINRTSSTSLQSNTSRGVPVAREASKHEKYFPFKQGFLSVATLRVGTEGMQMTVDGKHITSFAFRDTLEPWLVSEIRITGDFRLISILA",glycan array binding signal (z-score),Fuc(a1-2)Gal,-0.175
same,glycan array binding signal (z-score),Fuc(a1-2)Gal(b1-3)GalNAc,0.1
same,glycan array binding signal (z-score),[1],8.63
same,glycan array binding signal (z-score),[2],-0.235
same,glycan array binding signal (z-score),[3],-0.445
same,glycan array binding signal (z-score),Fuc(a1-2)Gal(b1-3)GlcNAc,0.807
same,glycan array binding signal (z-score),[4],-0.319
same,glycan array binding signal (z-score),[5],-0.17
same,glycan array binding signal (z-score),[6],-0.284
same,glycan array binding signal (z-score),[7],-0.251
same,glycan array binding signal (z-score),[8],0.828
same,glycan array binding signal (z-score),Fuc(a1-2)Gal(b1-4)Glc,-0.302
same,glycan array binding signal (z-score),Fuc(a1-2)Gal(b1-4)Glc6S,-0.165
same,glycan array binding signal (z-score),Fuc(a1-2)Gal(b1-4)GlcNAc,-0.374
same,glycan array binding signal (z-score),[9],-0.089
same,glycan array binding signal (z-score),[10],-0.214
same,glycan array binding signal (z-score),[11],-0.441
same,glycan array binding signal (z-score),[12],-0.367
same,glycan array binding signal (z-score),[13],4.77
same,glycan array binding signal (z-score),[14],0.697
same,glycan array binding signal (z-score),[15],0.745
same,glycan array binding signal (z-score),[16],1.95
same,glycan array binding signal (z-score),Fuc(a1-2)Gal6S(b1-4)Glc,1.86
same,glycan array binding signal (z-score),[17],-0.053
same,glycan array binding signal (z-score),[18],-0.321
same,glycan array binding signal (z-score),Fuc(a1-2)[Gal(a1-3)]Gal,0.233
same,glycan array binding signal (z-score),[19],-0.245
same,glycan array binding signal (z-score),[20],-0.179
same,glycan array binding signal (z-score),[21],-0.086
same,glycan array binding signal (z-score),[22],-0.336
same,glycan array binding signal (z-score),[23],-0.253
same,glycan array binding signal (z-score),[24],-0.041
same,glycan array binding signal (z-score),[25],-0.333
same,glycan array binding signal (z-score),[26],-0.453
same,glycan array binding signal (z-score),[27],1.44
same,glycan array binding signal (z-score),[28],-0.131
same,glycan array binding signal (z-score),[29],-0.391
same,glycan array binding signal (z-score),[30],-0.498
same,glycan array binding signal (z-score),[31],-0.299
same,glycan array binding signal (z-score),[32],-0.268
same,glycan array binding signal (z-score),[33],1.05
same,glycan array binding signal (z-score),[34],1.82
same,glycan array binding signal (z-score),[35],-0.082
same,glycan array binding signal (z-score),[36],0.037
same,glycan array binding signal (z-score),Fuc(a1-3)GlcNAc,-0.157
same,glycan array binding signal (z-score),[37],-0.255
same,glycan array binding signal (z-score),[38],0.124
same,glycan array binding signal (z-score),[39],-0.143
same,glycan array binding signal (z-score),[40],-0.094
same,glycan array binding signal (z-score),[41],-0.081
same,glycan array binding signal (z-score),[42],-0.264
same,glycan array binding signal (z-score),[43],-0.386
same,glycan array binding signal (z-score),[44],0.289
same,glycan array binding signal (z-score),[45],-0.547
same,glycan array binding signal (z-score),[46],1.02
same,glycan array binding signal (z-score),[47],-0.483
same,glycan array binding signal (z-score),[48],-0.421
same,glycan array binding signal (z-score),[49],0.079
same,glycan array binding signal (z-score),Fuc(a1-4)GlcNAc,-0.287
same,glycan array binding signal (z-score),Fuc(b1-3)GlcNAc,-0.443
